Hit rate of the full screen: of about 310,000 compounds, about 18,000 (5.8%) were called active. Inconclusive means that the source gave no clear call. Such entries were picked first, then a sample of the others. Calls come from the whole dose curve; as a rule, active = well fitted inhibition curve with a large enough effect; inconclusive = small, poorly fitted or top-dose-only effect, or another doubt; inactive = no such curve, though single readings can be large or run the other way. No potency is given beside an inconclusive call; the fits are too rough.
Assay: Primary qHTS for delayed death inhibitors of the malarial parasite plastid, 48 hour incubation
Details: P. falciparum luciferase growth in erythrocytes; series mostly up to 28.7 µM
In short: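 Erythrocytes infected with P. falciparum carrying an integrated firefly luciferase reporter (2% hematocrit, 0.1% parasitemia final) were exposed to compounds in RPMI 1640 with 0.5% Albumax at 37 C, 5% CO2. Growth inhibition was scored as reduced luminescence.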
Potency is the fitted concentration of half-maximal effect; tags give direction and shape of the fitted curve.

Row | SMILES | Potency
1 | CCC1(C)N=C(N)Nc2nc3cc(C)c(C)cc3n21 (centres undefined) | inconclusive [inhibitor, partial curve]
2 | Cc1cc(C)c2c(N)c(S(=O)(=O)c3ccccc3)sc2n1 | inconclusive [inhibitor, partial curve, poor fit]
3 | CC(C(=O)NC1CCCCC1)N(Cc1ccc(F)cc1)C(=O)c1snc(C(N)=O)c1N (centres undefined) | inconclusive [inhibitor, single point]
4 | COC1OC(CO)C(OC2OC(C(=O)O)C(OC3OC(COS(=O)(=O)O)C(OC4OC(C(=O)O)C(OC5OC(CO)C(OC6OC(C(=O)O)C(OC7OC(COS(=O)(=O)O)C(OC8OC(C(=O)O)=C[C@H](O)C8OS(=O)(=O)O)C(O)C7NC(C)=O)[C@@H](O)C6O)C(O)C5NC(C)=O)[C@@H](O)C4O)C(O)C3NC(C)=O)[C@@H](O)C2O)C(O)C1NC(C)=O (some centres undefined) | active: 12 µM
5 | O=S(=O)(c1ccc(SCc2ccc(Br)cc2)nc1)N1CCOCC1 | inconclusive [inhibitor, single point]
6 | O=C(Cc1c(F)cccc1Cl)Nc1cccc(S(=O)(=O)NC2=NCCCCC2)c1 | inconclusive [inhibitor, partial curve, poor fit]
7 | CCOC(=O)c1cc(CC)sc1NC(=O)COC(=O)c1cc[n+]([O-])cc1 | inactive
8 | CC(=O)c1ccc(NC(=O)c2ccccc2-c2ccccc2C(=O)O)cc1 | inactive
9 | O=C(CNC(=O)C1COc2ccccc2O1)N/N=C/c1ccc(O)cc1O (centres undefined) | inconclusive [inhibitor, partial curve, poor fit]
10 | O=C(Nc1ccc([N+](=O)[O-])cc1)Nc1nc(-c2ccc(Cl)s2)cs1 | active: 1.85 µM
11 | Nn1c(Cc2cccc3ccccc23)nnc1SCc1ccc(Cl)c(Cl)c1 | inconclusive [inhibitor, single point]
12 | COc1ccc(CCNC(=O)NC23CC4CC(CC(C4)C2)C3)cc1OC | inconclusive [inhibitor, full curve, poor fit]
13 | CN1C(=O)/C(=N/OC(=O)c2ccccc2)c2ccccc21 | inconclusive [inhibitor, partial curve, poor fit]
14 | OC(COc1ccc2c(c1)CCC2)Cn1cnc2ccccc21 (centres undefined) | active: 10.4 µM
15 | C/C=C/c1ccc(OCCCCN2CC(C)CC(C)C2)c(OC)c1 (centres undefined) | inconclusive [inhibitor, single point]
16 | Cc1cc(C(=O)COC(=O)c2ccc(NC(=O)CC#N)cc2)c(C)n1CCc1ccc(F)cc1 | inconclusive [inhibitor, single point]
17 | CC(=N\NC(=O)c1ccccc1)/C(=N/O)C(=O)Nc1ccccc1 | inactive
18 | Cc1ccc(O)c(/C=N/NC(=O)COc2ccc3c(C)cc(=O)oc3c2)c1 | inconclusive [inhibitor, single point]
19 | COc1ccc([C@H]2CC(=O)C=C(c3ccccc3OC)C2)cc1OC | inconclusive [inhibitor, partial curve, poor fit]
20 | COc1ccc(F)cc1C(=O)C1CCCN(C(=O)c2ccc(C(C)=O)s2)C1 (centres undefined) | inactive

Row | SMILES | Potency
21 | COc1ccc(S(=O)(=O)N2CCCN(CC(=O)C(C)(C)C)CC2)cc1 | inconclusive [inhibitor, single point]
22 | CCc1c(C(=O)N/N=C/c2ccc(C)o2)csc1C | inconclusive [inhibitor, partial curve]
23 | O=[N+]([O-])c1ccc(N2CCc3ccccc3C2)nc1 | inactive
24 | COc1ccc(C2NC(=O)NC(C)=C2C(=O)OCc2ccc3c(c2)OCO3)cc1OC (centres undefined) | active: 4.65 µM
25 | COC(=O)c1cccc(C#CC(NP(=O)(c2ccccc2)c2ccccc2)c2ccccc2)c1 (centres undefined) | inconclusive [inhibitor, single point]
26 | COc1ccc(Cl)cc1N(CC(=O)N(C)C)S(=O)(=O)c1ccc(C)c([N+](=O)[O-])c1 | inconclusive [inhibitor, partial curve]
27 | Cc1cc(Sc2nc(NC(C)C)nc(NC(C)C)n2)nc(Cl)n1 | inconclusive [inhibitor, single point]
28 | O=C(c1cc2sccc2n1Cc1ccccc1)N1CCN(c2nc3ccccc3s2)CC1 | inconclusive [inhibitor, single point]
29 | CC[C@]1(c2ccccc2OC)C(=O)N(C(=O)OC)N1C(=O)OC | inactive
30 | O=C1NCCCC1C(=O)N/N=C/c1cc([N+](=O)[O-])ccc1O (centres undefined) | inconclusive [inhibitor, single point]
31 | CCCCn1nc(C(=O)Nc2c(C)n(C)n(-c3ccccc3)c2=O)c2ccccc2c1=O | inconclusive [inhibitor, single point]
32 | C=CCOc1ccc(C(=O)Nc2ccc(OCC)cc2)cc1 | inactive
33 | CCc1ccc(-c2cc(C)no2)cc1S(=O)(=O)NCCN1CCC(C)CC1 | inconclusive [inhibitor, single point]
34 | Cc1onc(-c2ccccc2)c1NC(=O)N(CCC#N)Cc1ccccc1 | inconclusive [inhibitor, single point]
35 | CCN(CC(=O)Nc1cccc(OC)c1)CC(=O)Nc1cccc2ccccc12 | inconclusive [inhibitor, single point]
36 | O=S(=O)(c1ccccc1F)N1CCN(Cc2cc3c(cc2Br)OCCO3)CC1 | inconclusive [inhibitor, single point]
37 | O=C(CCCn1c(=S)[nH]c2cc3c(cc2c1=O)OCO3)N1CCN(c2ccc(F)cc2)CC1 | inconclusive [inhibitor, partial curve]
38 | COc1ccc(-c2oc3ccc(N4CCOCC4)cc3c2/C=C/c2ccc(OC)c(OC)c2)cc1 | inconclusive [inhibitor, partial curve, poor fit]
39 | CCOc1ccc(N=c2scc(-c3ccc(OC)cc3)n2CCO)cc1 | inconclusive [inhibitor, single point]

Reference: PubChem BioAssay AID504832 (National Center for Advancing Translational Sciences (NCATS), 2011)
